From publication PMC7819943, “Rice protein-binding microarrays: a tool to detect cis-acting elements near promoter regions in rice”
This is one part of the list.

What follows are sequences tested against T1, OsWOX13 (Oryza sativa, UniProt Q5QMM3 1-267) (assay: protein-binding microarray (RPBM); PBS, 2% BSA, 51.3 ng/ul salmon testes DNA, 50 uM zinc acetate, 200 nM TF, 25 C, 1 h; high values mean tight binding). Details: protein: recombinant; tags: N-terminal polyhistidine and DsRed monomer fusion (pET32a); label: CyDye5-dUTP incorporated in the synthesized complementary strand; 3' TTTTT single-stranded linker to array surface; dsDNA, one strand shown.
T1 sequence: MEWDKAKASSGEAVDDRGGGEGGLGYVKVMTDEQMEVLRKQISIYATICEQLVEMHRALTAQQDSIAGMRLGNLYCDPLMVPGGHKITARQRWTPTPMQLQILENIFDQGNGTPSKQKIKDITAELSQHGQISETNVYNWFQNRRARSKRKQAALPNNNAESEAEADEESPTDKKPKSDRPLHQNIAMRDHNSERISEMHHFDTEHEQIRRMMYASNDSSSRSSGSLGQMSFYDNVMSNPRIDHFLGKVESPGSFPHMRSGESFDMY
In short: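 In PBS with 2% BSA, salmon testes DNA and 50 µM zinc acetate, 200 nM protein was incubated on a custom Agilent array at 25 °C for 1 h and then washed off. The array had been made double-stranded by primer extension with Cy5-dUTP and blocked with 2% BSA. The proteins were transcription factors fused N-terminally to polyhistidine and DsRed, expressed in E. coli BL21-CodonPlus and purified on Ni–NTA. The binding signal is per-feature fluorescence intensity (arbitrary units) from an Axon 4000B scanner.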
With “TTTTGTGATTAAATTGTTATCAAATCTACAATTTTATGATCGGAGTCACCTAGTGCAG” the binding signal was 19800 fluorescence intensity (a.u.). With “AAGAAATTATTAGTGTATGATTAATTAAGTTTCAATTATTCGGAGTCACCTAGTGCAG” the binding signal was 19200 fluorescence intensity (a.u.). “TTTAGTGATAAATTCTTAATTATTAATAGTAAGTGTGACACGGAGTCACCTAGTGCAG” was tested, and the binding signal was 10900 fluorescence intensity (a.u.). “CATAATTATCCAAATTTACCACCCATCAACATCAAGAGAACGGAGTCACCTAGTGCAG” was tested, and the binding signal was 22000 fluorescence intensity (a.u.). For “CAATGATTGTATGACAGGTGGGACCATGCATTAATAATGTCGGAGTCACCTAGTGCAG”, the binding signal was 46000 fluorescence intensity (a.u.). For “TCTCTTTCTAAAGAAGTCAATCAGTCAATCTGGACCGTCCCGGAGTCACCTAGTGCAG”, the binding signal was 5610 fluorescence intensity (a.u.). “CGATCAATCTCTCTTTATTTATTTGCAGATCGATCAACCTCGGAGTCACCTAGTGCAG” was tested, and the binding signal was 5760 fluorescence intensity (a.u.). For “GGCTACTTTCTTTTCTGATTAATATGTAGATTTATCTCGGCGGAGTCACCTAGTGCAG”, the binding signal was 3770 fluorescence intensity (a.u.). In the case of “TTTTCTAATCATCAGACATTAGTGTTCGTTTTGCTCTAGACGGAGTCACCTAGTGCAG”, the binding signal is reported as 8020 fluorescence intensity (a.u.). In the case of “TCAACGTGAGGGTAATTGGCGCTGACATCCTTGCCATGTCCGGAGTCACCTAGTGCAG”, the binding signal is reported as 6010 fluorescence intensity (a.u.). “CTACAGCCTAATTAATCCATAATCTAAACCGGGTCTTAGGCGGAGTCACCTAGTGCAG” was tested, and the binding signal was 7980 fluorescence intensity (a.u.). “ATCTAAATGTGTTGATAGAGGGCTGCAAGGAGATGAAGTGCGGAGTCACCTAGTGCAG” was tested, and the binding signal was 6660 fluorescence intensity (a.u.). “TTACCATAGTTGATTTGTGTTGGTCTGTAGTCCTGGCACACGGAGTCACCTAGTGCAG” was tested, and the binding signal was 5010 fluorescence intensity (a.u.). “TAAATTTACTATCACTGATTTAACCTATAGATGGGCTCACCGGAGTCACCTAGTGCAG” was tested, and the binding signal was 16600 fluorescence intensity (a.u.). “TTTTGCAATGTGATTTGCTGGTTTGGATAGTGGAGAAGTTCGGAGTCACCTAGTGCAG” was tested, and the binding signal was 3300 fluorescence intensity (a.u.). In the case of “ACTGATGGTAAATTTTCTATGAAGACCATTTGTAAAACCTCGGAGTCACCTAGTGCAG”, the binding signal is reported as 8380 fluorescence intensity (a.u.). With “TCCAATCAAACGACCATTCCTGTGTTTTGCAATCCTCTGTCGGAGTCACCTAGTGCAG” the binding signal was 3300 fluorescence intensity (a.u.). In the case of “TTAAATTTAGAAATGATTTCAATGTCGGTTTCATTGCAGTCGGAGTCACCTAGTGCAG”, the binding signal is reported as 22800 fluorescence intensity (a.u.). For “ACTGTGATAGAGATAGACAGCAGCTTGAGCCGGCCGCTGGCGGAGTCACCTAGTGCAG”, the binding signal was 29300 fluorescence intensity (a.u.). For “CAGAAACGTAATTAGATTCGGTTAATTAAGCGCCGATATACGGAGTCACCTAGTGCAG”, the binding signal was 28200 fluorescence intensity (a.u.). “TGTGATGGAACAGAGTGACAATTAATGCACATGTAATAGCCGGAGTCACCTAGTGCAG” was tested, and the binding signal was 14200 fluorescence intensity (a.u.). With “CTTTGATCAATGTTAGATTTAATAAAATTGATTTGGTGGTCGGAGTCACCTAGTGCAG” the binding signal was 18900 fluorescence intensity (a.u.). With “GCTTACTCACTAATTTTATCTATAAATGGATTCTCCGGGTCGGAGTCACCTAGTGCAG” the binding signal was 5050 fluorescence intensity (a.u.). In the case of “ACTTAATGAGTGGACACAAAACCATATCCTCTAGCAAGATCGGAGTCACCTAGTGCAG”, the binding signal is reported as 5240 fluorescence intensity (a.u.). For “GCCCCTGAATTGACAAGTATTCTCCATTTGGGCCACTGTTCGGAGTCACCTAGTGCAG”, the binding signal was 10600 fluorescence intensity (a.u.). For “AAGTTTGATTAAAATTGGAACGATGTGATGGAAAAGTTAGCGGAGTCACCTAGTGCAG”, the binding signal was 17300 fluorescence intensity (a.u.). “TTAGGGACATAAATTGATCTTGTTTTAATAGTTTGGGATGCGGAGTCACCTAGTGCAG” was tested, and the binding signal was 4650 fluorescence intensity (a.u.). With “GGGGAGATAGAGAAGATTAGGAAGATACGCAAAACGAGGTCGGAGTCACCTAGTGCAG” the binding signal was 5680 fluorescence intensity (a.u.). In the case of “CCTCCATCATGAGCTCCAATTAGCCGCACACCGATCCCCTCGGAGTCACCTAGTGCAG”, the binding signal is reported as 6160 fluorescence intensity (a.u.). “CCTCTATTACCGCCTGTCATCTGGGCCCACGCTAATACCGCGGAGTCACCTAGTGCAG” was tested, and the binding signal was 5320 fluorescence intensity (a.u.). “TCCCATTGATTTGATCCAGCTAATTAATTAATTCGATCCACGGAGTCACCTAGTGCAG” was tested, and the binding signal was 49900 fluorescence intensity (a.u.). In the case of “CTTTCATTTATATAATTAGTTTTATAAGTAGTCTATATTTCGGAGTCACCTAGTGCAG”, the binding signal is reported as 4950 fluorescence intensity (a.u.). In the case of “AATGATGACATGATATTAAGTTGATGCATGGAAAACAAGACGGAGTCACCTAGTGCAG”, the binding signal is reported as 5030 fluorescence intensity (a.u.). “TATTAAATTTGTAGTTTTATGATACTTAGCCTTAAACGTACGGAGTCACCTAGTGCAG” was tested, and the binding signal was 8070 fluorescence intensity (a.u.). “TGCATGAAATTGGGCTATCCAATTAGCTTGTTGTTTGCTTCGGAGTCACCTAGTGCAG” was tested, and the binding signal was 3180 fluorescence intensity (a.u.). For “ATCACCAGAAGCGTACAGATTAATTAATCATTTTCTCGATCGGAGTCACCTAGTGCAG”, the binding signal was 4160 fluorescence intensity (a.u.). In the case of “TGATTAATTGTCTCATTGTTCAGCCAATCAACGGTACAAGCGGAGTCACCTAGTGCAG”, the binding signal is reported as 35600 fluorescence intensity (a.u.). With “AAGTAAAATTCATGTCAAATTTGATATCCATGTTCAATAGCGGAGTCACCTAGTGCAG” the binding signal was 3390 fluorescence intensity (a.u.). With “GACAACAATCTAAAATTTACAAATTTTCTCAGGTTTTACTCGGAGTCACCTAGTGCAG” the binding signal was 8350 fluorescence intensity (a.u.). In the case of “CACTAAATGGGCTAGATTTGACTGGGCCGATGCGGAGCCACGGAGTCACCTAGTGCAG”, the binding signal is reported as 18200 fluorescence intensity (a.u.). With “ATCAAATCAATCAAAGCTCTTTTATGATTTTGTCTCATCGCGGAGTCACCTAGTGCAG” the binding signal was 23900 fluorescence intensity (a.u.). For “AAACAAATTTATGGGGCGTAGAAGGGATTGGGTGAAATTACGGAGTCACCTAGTGCAG”, the binding signal was 7180 fluorescence intensity (a.u.).
